The list shows a part of the results.
Key:
[1] = system: HSkMC (human skeletal muscle cells); assay: cytotoxicity call (relative viability < 0.9); details: 10 µM
[2] = system: HepG2; assay: cytotoxicity call (relative viability < 0.9); details: 10 µM
[3] = system: S. aureus RN4220; assay: growth inhibition call (relative growth <= 0.2); details: 50 µM

| Compound | cytotoxicity call [1] | cytotoxicity call [2] | growth inhibition call [3] |
| --- | --- | --- | --- |
| CCNC(=O)C[C@@H]1CC[C@H]2[C@@H](COC[C@@H](O)CN2S(=O)(=O)c2ccc(Oc3ccccc3)cc2)O1 | inactive | inactive | inactive |
| CC(C)NC(=O)N(C)C[C@@H]1Oc2c(NS(=O)(=O)c3ccc(F)cc3)cccc2C(=O)N([C@H](C)CO)C[C@H]1C | inactive | inactive | inactive |
| COc1ccc(CNC(=O)C[C@@H]2C[C@H]3c4cc(NC(=O)NC5CCCC5)ccc4O[C@H]3[C@@H](CO)O2)cc1 | inactive | inactive | inactive |
| C[C@@H]1CN([C@@H](C)CO)C(=O)c2cccc(NS(=O)(=O)c3ccc(F)cc3)c2O[C@@H]1CN(C)S(C)(=O)=O | inactive | inactive | inactive |
| C[C@H]1CN([C@@H](C)CO)C(=O)c2ccccc2-c2ccccc2CO[C@H]1CN(C)Cc1ccc(C(F)(F)F)cc1 | inactive | inactive | inactive |
| COc1ccc(N2C[C@H](C(N)=O)CC2=O)cc1 | inactive | inactive | inactive |
| C[C@H]1CN([C@@H](C)CO)C(=O)c2cccc(NC(=O)CCCCCC(=O)Nc3ccccc3N)c2O[C@@H]1CN(C)C(=O)Nc1ccc(F)cc1 | inactive | inactive | inactive |
| C[C@@H]1CN([C@H](C)CO)S(=O)(=O)c2ccc(C3=CCCC3)cc2O[C@@H]1CN(C)C(=O)c1cnccn1 | inactive | inactive | inactive |
| C[C@H]1CN([C@@H](C)CO)C(=O)Cc2cc(NC(=O)C3CC3)ccc2O[C@@H]1CN(C)S(=O)(=O)c1ccccc1 | inactive | inactive | inactive |
| CCc1nc2ccc(C(=O)Nc3cccc(OCC(=O)N(C)C)c3)cn2c1N(C)C(=O)c1ccncc1 | inactive | inactive | inactive |
| C[C@@H]1CN([C@@H](C)CO)C(=O)c2cc(NS(=O)(=O)c3ccc(Cl)cc3)ccc2O[C@H]1CN(C)Cc1ccc(Oc2ccccc2)cc1 | inactive | inactive | inactive |
| COc1ccc2c3c(n(c2c1)C)[C@H](CO)N(C[C@]13CCN(CC1)C(=O)c1cnccn1)C(=O)c1cnccn1 | inactive | inactive | inactive |
| COc1ccc2c3c(n(c2c1)C)[C@H](CO)N(C[C@]13CCN(CC1)C(=O)c1ccccc1F)C(=O)Nc1ccccc1F | inactive | inactive | inactive |
| CC(C)(C(=O)O)c1ccc(C(O)CCCN2CCC(C(O)(c3ccccc3)c3ccccc3)CC2)cc1.Cl (stereo not given) | inactive | inactive | inactive |
| C[C@H](CO)N1C[C@H](C)[C@H](CN(C)Cc2ccncc2)OCCCC[C@H](C)Oc2ccc(NC(=O)Nc3ccc(F)cc3)cc2C1=O | inactive | inactive | inactive |
| CCn1nc(C(=O)O)c(=O)c2cc3c(cc21)OCO3 | inactive | inactive | inactive |
| Cc1noc(C)c1S(=O)(=O)Nc1ccc2c(c1)CC(=O)N([C@H](C)CO)C[C@H](C)[C@H](CN(C)S(=O)(=O)c1cn(C)cn1)O2 | inactive | inactive | inactive |
| COc1ccc(C(=O)O)c(O)c1OC | inactive | inactive | inactive |
| COc1ccc(NC(=O)N(C)C[C@H]2Oc3ccc(NS(=O)(=O)c4cn(C)cn4)cc3C(=O)N([C@H](C)CO)C[C@@H]2C)cc1 | inactive | inactive | inactive |
| C[C@@H]1CN([C@@H](C)CO)C(=O)c2cccc(NS(=O)(=O)c3ccc(F)cc3)c2O[C@@H]1CN(C)S(=O)(=O)c1ccccc1 | inactive | inactive | inactive |
| C[C@@H]1CN([C@@H](C)CO)C(=O)c2cc(NC(=O)Nc3ccc4c(c3)OCO4)ccc2O[C@@H]1CN(C)C(=O)Nc1cccc2ccccc12 | active | inactive | inactive |
| Cc1ccc(S(=O)(=O)N(C)C[C@H]2OCCCC[C@H](C)Oc3ccc(NC(=O)Nc4ccc5c(c4)OCO5)cc3C(=O)N([C@@H](C)CO)C[C@@H]2C)cc1 | inactive | inactive | inactive |
| CN(C)C(=O)C[C@H]1CC[C@H]2[C@@H](COC[C@H](O)CN2S(=O)(=O)c2ccccc2)O1 | inactive | inactive | inactive |
| C[C@H](CO)N1C[C@H](C)[C@@H](CN(C)Cc2ccncc2)OCCCC[C@H](C)Oc2ccc(NS(C)(=O)=O)cc2C1=O | inactive | inactive | inactive |
| CCS(=O)(=O)N1CC[C@@H](O)[C@@H]1Cc1cnn(C)c1 | inactive | inactive | inactive |
| Cc1noc(C)c1NC(=O)Nc1ccc2c(c1)C(=O)N([C@H](C)CO)C[C@@H](C)[C@@H](CN(C)C(=O)Nc1cccc3ccccc13)O2 | inactive | inactive | inactive |
| C[C@@H]1CCCCO[C@@H](CN(C)S(=O)(=O)c2ccc(Cl)cc2)[C@H](C)CN([C@H](C)CO)C(=O)c2cc(NS(=O)(=O)c3ccc(F)cc3)ccc2O1 | inactive | inactive | inactive |
| CC(=O)N1CCC(N)CC1 | inactive | inactive | inactive |

| Compound | cytotoxicity call [1] | cytotoxicity call [2] | growth inhibition call [3] |
| --- | --- | --- | --- |
| C[C@@H]1CN([C@H](C)CO)C(=O)Cc2cc(NC(=O)CCN3CCOCC3)ccc2O[C@@H]1CN(C)S(C)(=O)=O | inactive | inactive | inactive |
| Cc1ccc(S[C@]2(C(=O)NC3CC3)CC(=O)N(C3CCCCC3)[C@@H]2c2ccc(CO)cc2I)cc1 | inactive | inactive | inactive |
| COc1cc2c(cc1OC)CN(C(=O)[C@@H]1[C@H]3C(=O)O[C@H](c4ccccc4)[C@H](c4ccccc4)N3[C@H](c3ccccc3OCCO)[C@@]13C(=O)Nc1ccc(C#CC4(O)CCCCCC4)cc13)CC2 | inactive | inactive | inactive |
| C[C@@H]1CN([C@H](C)CO)C(=O)Cc2cc(NC(=O)Nc3ccc4c(c3)OCO4)ccc2O[C@H]1CN(C)C(=O)Nc1cccc2ccccc12 | inactive | inactive | inactive |
| O=C(C[C@@H]1CC=CCC[C@H](Cc2ccc(F)cc2)C(=O)OC[C@H](Cc2c[nH]c3ccccc23)NC1=O)N[C@@H](CO)Cc1ccccc1 | inactive | inactive | inactive |
| COc1ccc(NC(=O)N(C)C[C@@H]2Oc3ccc(NC(=O)C4CC4)cc3C(=O)N([C@@H](C)CO)C[C@H]2C)cc1 | inactive | inactive | inactive |
| COc1cccc(NC(=O)N[C@@H]2C=C[C@@H](CC(=O)N3CCN(C)CC3)O[C@@H]2CO)c1 | inactive | inactive | inactive |
| c1coc(CNc2ncnc3[nH]cnc23)c1 | inactive | inactive | inactive |
| COc1ccc(S(=O)(=O)Nc2ccc3c(c2)C(=O)N([C@H](C)CO)C[C@@H](C)[C@@H](CN(C)C(=O)C2CCCCC2)OCCCC[C@@H](C)O3)cc1 | inactive | inactive | inactive |
| c1ccc(Nc2nc3c(ccc4ccccc43)s2)cc1 | inactive | active | inactive |
| Cc1ccc(S(=O)(=O)Nc2ccc3c(c2)C(=O)N([C@@H](C)CO)C[C@@H](C)[C@H](CN(C)S(=O)(=O)c2ccc(F)cc2)OCCCC[C@H](C)O3)cc1 | inactive | inactive | inactive |
| C[C@@H]1CCCCO[C@H](CN(C)C(=O)Nc2ccccc2)[C@@H](C)CN([C@H](C)CO)C(=O)c2cc(NC(=O)C3CCCCC3)ccc2O1 | inactive | inactive | inactive |
| CN1C(=O)c2cc(NC(=O)Nc3ccccc3F)ccc2OC[C@@H]2O[C@@H](CC(=O)NCc3ccc(-c4ccccc4)cc3)CC[C@H]21 | inactive | inactive | inactive |
| O=C(NCC(F)(F)F)[C@H]1[C@H](CO)[C@H]2Cn3c(cccc3=O)[C@H]2N1C(=O)C1CCC1 | inactive | inactive | inactive |
| COc1cccc(-c2ccc3c(c2)O[C@@H](CN(C)C(=O)C2CCOCC2)[C@H](C)CN([C@H](C)CO)S3(=O)=O)c1 | inactive | inactive | inactive |
| CCN(CC)C(=O)N1CCN(C)CC1.O=C(O)CC(O)(CC(=O)O)C(=O)O | inactive | inactive | inactive |
| C[C@@H]1CCCCO[C@H](CN(C)Cc2ccccc2)[C@@H](C)CN([C@H](C)CO)C(=O)c2cc(NC(=O)Nc3ccccc3)ccc2O1 | inactive | inactive | inactive |
| C[C@H]1CN([C@@H](C)CO)C(=O)Cc2cc(NC(=O)Cn3cnnn3)ccc2O[C@@H]1CN(C)Cc1ccc(C(=O)O)cc1 | inactive | inactive | inactive |
| C[C@H]1CN([C@@H](C)CO)S(=O)(=O)c2ccc(Br)cc2O[C@H]1CN(C)S(=O)(=O)c1ccc(F)cc1 | inactive | inactive | inactive |
| C[C@@H]1CCCCO[C@H](CN(C)S(=O)(=O)c2ccc(Cl)cc2)[C@@H](C)CN([C@H](C)CO)C(=O)c2cc(NS(=O)(=O)c3ccc(F)cc3)ccc2O1 | inactive | inactive | inactive |
| C[C@H](CO)N1C[C@H](C)[C@@H](CN(C)CC2CCCCC2)OCCCC[C@H](C)Oc2ccc(NS(=O)(=O)c3ccc(Cl)cc3)cc2C1=O | inactive | inactive | inactive |
| C[C@H]1CN([C@@H](C)CO)C(=O)c2cc(C#Cc3ccccn3)cnc2O[C@H]1CN(C)C(=O)CCN1CCCCC1 | inactive | inactive | inactive |
| C[C@H](CO)N1C[C@H](C)[C@H](CN(C)CC2CC2)Oc2ccc(NC(=O)Cn3cnnn3)cc2C1=O | inactive | inactive | inactive |
| C[C@@H]1CN([C@H](C)CO)C(=O)Cc2cc(NS(=O)(=O)c3cccs3)ccc2O[C@H]1CN(C)Cc1ccc(Cl)c(Cl)c1 | active | inactive | inactive |
| C[C@@H]1CN([C@@H](C)CO)C(=O)CCCn2cc(nn2)CO[C@@H]1CN(C)C(=O)Nc1ccc2c(c1)OCO2 | inactive | inactive | inactive |
| C[C@@H]1CN([C@@H](C)CO)C(=O)c2cc(NS(=O)(=O)c3ccccc3)ccc2O[C@@H](C)CCCCO[C@H]1CN(C)C(=O)Nc1ccc(C(F)(F)F)cc1 | inactive | inactive | inactive |
| CCC(=O)NNC(=O)c1cccc(O)c1 | inactive | inactive | inactive |

Source: the antibiotic and cytotoxicity screens of Wong et al. (2023)
